From the supplement of paper PMC8728848
The other results are listed elsewhere or left out.

Experiments:
Experiment in all cases: glycan array binding signal (z-score within array); higher = stronger binding
Settings in all cases: glycan notation: IUPAC condensed, linker removed
[1] = target: Man(a1-2)Man(a1-3)[Man(a1-2)Man(a1-6)]Man(a1-6)[Man(a1-2)Man(a1-2)Man(a1-3)]Man
Outline: (§1)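 The binding signal is a Z-score computed within each array. Data were drawn from 3228 arrays in the Consortium for Functional Glycomics database, restricted to those with a known protein sequence. Scores were averaged over arrays of the same protein sequence at different concentrations or buffers, and over linkers, and negative values can be taken as non-binding.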

[2] = target: Man(a1-2)Man(a1-3)[Man(a1-2)Man(a1-6)]Man(a1-6)[Man(a1-2)Man(a1-2)Man(a1-3)]Man(b1-4)GlcNAc(b1-4)GlcNAc
Outline: as §1

[3] = target: Man(a1-2)Man(a1-3)[Man(a1-6)]Man(a1-6)[Man(a1-2)Man(a1-3)]Man(b1-4)GlcNAc(b1-4)GlcNAc
Outline: as §1

[4] = target: Man(a1-2)Man(a1-6)[Man(a1-3)]Man(a1-6)[Man(a1-2)Man(a1-2)Man(a1-3)]Man
Outline: as §1

[5] = target: Man(a1-2)Man(a1-6)[Man(a1-3)]Man(a1-6)[Man(a1-2)Man(a1-2)Man(a1-3)]Man(b1-4)GlcNAc(b1-4)GlcNAc
Outline: as §1

[6] = target: Man(a1-3)[Man(a1-6)]Man
Outline: as §1

[7] = target: Man(a1-3)[Man(a1-6)]Man(a1-6)[Man(a1-2)Man(a1-3)]Man(b1-4)GlcNAc(b1-4)GlcNAc
Outline: as §1

[8] = target: Man(a1-3)[Man(a1-6)]Man(a1-6)[Man(a1-3)]Man
Outline: as §1

[9] = target: Man(a1-3)[Man(a1-6)]Man(a1-6)[Man(a1-3)]Man(b1-4)GlcNAc(b1-4)GlcNAc
Outline: as §1

[10] = target: Man(a1-3)[Man(a1-6)]Man(b1-4)GlcNAc(b1-4)GlcNAc
Outline: as §1

[11] = target: Man(a1-3)[Man(a1-6)]Man(b1-4)GlcNAc(b1-4)[Fuc(a1-6)]GlcNAc
Outline: as §1

[12] = target: Man(a1-6)Man
Outline: as §1

[13] = target: Man(b1-4)GlcNAc
Outline: as §1

[14] = target: MurNAc(b1-4)GlcNAc
Outline: as §1

[15] = target: Neu5Ac(a2-3)Gal
Outline: as §1

[16] = target: Neu5Ac(a2-3)Gal(b1-3)GalNAc
Outline: as §1

[17] = target: Neu5Ac(a2-3)Gal(b1-3)GalNAc(b1-3)Gal(a1-4)Gal(b1-4)Glc
Outline: as §1

[18] = target: Neu5Ac(a2-3)Gal(b1-3)GalNAc(b1-4)[Neu5Ac(a2-3)]Gal(b1-4)Glc
Outline: as §1

[19] = target: Neu5Ac(a2-3)Gal(b1-3)GalNAc(b1-4)[Neu5Ac(a2-8)Neu5Ac(a2-3)]Gal(b1-4)Glc
Outline: as §1

[20] = target: Neu5Ac(a2-3)Gal(b1-3)GalNAc6S
Outline: as §1

[21] = target: Neu5Ac(a2-3)Gal(b1-3)GlcNAc
Outline: as §1

[22] = target: Neu5Ac(a2-3)Gal(b1-3)GlcNAc(b1-2)Man
Outline: as §1

[23] = target: Neu5Ac(a2-3)Gal(b1-3)GlcNAc(b1-2)Man(a1-3)[GlcNAc(b1-4)][Neu5Ac(a2-3)Gal(b1-3)GlcNAc(b1-2)Man(a1-6)]Man(b1-4)GlcNAc(b1-4)GlcNAc
Outline: as §1

[24] = target: Neu5Ac(a2-3)Gal(b1-3)GlcNAc(b1-2)Man(a1-3)[Neu5Ac(a2-3)Gal(b1-3)GlcNAc(b1-2)Man(a1-6)]Man(b1-4)GlcNAc(b1-4)GlcNAc
Outline: as §1

[25] = target: Neu5Ac(a2-3)Gal(b1-3)GlcNAc(b1-3)Gal(b1-3)GlcNAc
Outline: as §1

[26] = target: Neu5Ac(a2-3)Gal(b1-3)GlcNAc(b1-3)Gal(b1-4)GlcNAc
Outline: as §1

[27] = target: Neu5Ac(a2-3)Gal(b1-3)GlcNAc(b1-3)GalNAc
Outline: as §1

[28] = target: Neu5Ac(a2-3)Gal(b1-3)GlcNAc(b1-4)Gal(b1-4)Glc
Outline: as §1

[29] = target: Neu5Ac(a2-3)Gal(b1-3)GlcNAc(b1-6)GalNAc
Outline: as §1

[30] = target: Neu5Ac(a2-3)Gal(b1-3)GlcNAc6S
Outline: as §1

[31] = target: Neu5Ac(a2-3)Gal(b1-3)[Fuc(a1-4)]GlcNAc
Outline: as §1

[32] = target: Neu5Ac(a2-3)Gal(b1-3)[Fuc(a1-4)]GlcNAc(b1-3)Gal(b1-3)[Fuc(a1-4)]GlcNAc
Outline: as §1

[33] = target: Neu5Ac(a2-3)Gal(b1-3)[Fuc(a1-4)]GlcNAc(b1-3)Gal(b1-4)[Fuc(a1-3)]GlcNAc
Outline: as §1

[34] = target: Neu5Ac(a2-3)Gal(b1-3)[GlcNAc(b1-6)]GalNAc
Outline: as §1

[35] = target: Neu5Ac(a2-3)Gal(b1-3)[Neu5Ac(a2-6)]GalNAc
Outline: as §1

[36] = target: Neu5Ac(a2-3)Gal(b1-3)[Neu5Ac(a2-6)]GlcNAc(b1-3)[Fuc(a1-3)[Gal(b1-4)]GlcNAc(b1-6)]Gal(b1-4)Glc
Outline: as §1

[37] = target: Neu5Ac(a2-3)Gal(b1-3)]Neu5Ac(a2-3)Gal(b1-4)]GlcNAc
Outline: as §1

[38] = target: Neu5Ac(a2-3)Gal(b1-4)Glc
Outline: as §1

[39] = target: Neu5Ac(a2-3)Gal(b1-4)GlcNAc
Outline: as §1

[40] = target: Neu5Ac(a2-3)Gal(b1-4)GlcNAc(b1-2)Man
Outline: as §1

[41] = target: Neu5Ac(a2-3)Gal(b1-4)GlcNAc(b1-2)Man(a1-3)[GlcNAc(b1-4)][Neu5Ac(a2-3)Gal(b1-4)GlcNAc(b1-2)Man(a1-6)]Man(b1-4)GlcNAc(b1-4)GlcNAc
Outline: as §1

[42] = target: Neu5Ac(a2-3)Gal(b1-4)GlcNAc(b1-2)Man(a1-3)[Neu5Ac(a2-3)Gal(b1-4)GlcNAc(b1-2)Man(a1-6)]Man(b1-4)GlcNAc(b1-4)GlcNAc
Outline: as §1

[43] = target: Neu5Ac(a2-3)Gal(b1-4)GlcNAc(b1-2)Man(a1-3)[Neu5Ac(a2-3)Gal(b1-4)GlcNAc(b1-2)Man(a1-6)]Man(b1-4)GlcNAc(b1-4)[Fuc(a1-6)]GlcNAc
Outline: as §1

[44] = target: Neu5Ac(a2-3)Gal(b1-4)GlcNAc(b1-2)Man(a1-3)[Neu5Ac(a2-6)Gal(b1-4)GlcNAc(b1-2)Man(a1-6)]Man(b1-4)GlcNAc(b1-4)GlcNAc
Outline: as §1

[45] = target: Neu5Ac(a2-3)Gal(b1-4)GlcNAc(b1-2)[Neu5Ac(a2-3)Gal(b1-4)GlcNAc(b1-4)]Man(a1-3)[GlcNAc(b1-4)][Neu5Ac(a2-3)Gal(b1-4)GlcNAc(b1-2)[Neu5Ac(a2-3)Gal(b1-4)GlcNAc(b1-6)]Man(a1-6)]Man(b1-4)GlcNAc(b1-4)GlcNAc
Outline: as §1

B1: GNL (Galanthus nivalis) (protein)
chain: MGHHHHHHHHYGTLENGHWLMVGMSIFSKDRTVELRMQDDGKLAIYYNDHCAWQSTAQQVNNAKGAVMQGDGNFCIYDKNGKATWHTNTAAPSGDSHTFVSVQDDGNLVLYKNNGATPIWSSKSNK
glycan array binding signal (z-score) [1]: -0.23 | glycan array binding signal (z-score) [2]: -0.164 | glycan array binding signal (z-score) [3]: -0.207 | glycan array binding signal (z-score) [4]: -0.213 | glycan array binding signal (z-score) [5]: -0.229 | glycan array binding signal (z-score) [6]: -0.186 | glycan array binding signal (z-score) [7]: -0.212 | glycan array binding signal (z-score) [8]: -0.247 | glycan array binding signal (z-score) [9]: -0.2 | glycan array binding signal (z-score) [10]: 0.628 | glycan array binding signal (z-score) [11]: 0.605 | glycan array binding signal (z-score) [12]: -0.258 | glycan array binding signal (z-score) [13]: -0.162 | glycan array binding signal (z-score) [14]: -0.228 | glycan array binding signal (z-score) [15]: -0.207 | glycan array binding signal (z-score) [16]: -0.265 | glycan array binding signal (z-score) [17]: -0.196 | glycan array binding signal (z-score) [18]: -0.286 | glycan array binding signal (z-score) [19]: -0.234 | glycan array binding signal (z-score) [20]: -0.27 | glycan array binding signal (z-score) [21]: -0.161 | glycan array binding signal (z-score) [22]: -0.208 | glycan array binding signal (z-score) [23]: -0.228 | glycan array binding signal (z-score) [24]: -0.122 | glycan array binding signal (z-score) [25]: -0.212 | glycan array binding signal (z-score) [26]: -0.257 | glycan array binding signal (z-score) [27]: -0.239 | glycan array binding signal (z-score) [28]: -0.298 | glycan array binding signal (z-score) [29]: -0.194 | glycan array binding signal (z-score) [30]: -0.203 | glycan array binding signal (z-score) [31]: -0.119 | glycan array binding signal (z-score) [32]: -0.172 | glycan array binding signal (z-score) [33]: -0.191 | glycan array binding signal (z-score) [34]: -0.179 | glycan array binding signal (z-score) [35]: -0.279 | glycan array binding signal (z-score) [36]: -0.137 | glycan array binding signal (z-score) [37]: -0.172 | glycan array binding signal (z-score) [38]: -0.158 | glycan array binding signal (z-score) [39]: -0.246 | glycan array binding signal (z-score) [40]: -0.177 | glycan array binding signal (z-score) [41]: -0.295 | glycan array binding signal (z-score) [42]: -0.162 | glycan array binding signal (z-score) [43]: -0.1 | glycan array binding signal (z-score) [44]: -0.16 | glycan array binding signal (z-score) [45]: -0.215
